Data from article PMC10205607, “MAP4K3 inhibits Sirtuin-1 to repress the LKB1–AMPK pathway to promote amino acid-dependent activation of the mTORC1 complex” (Life Science Alliance, 2023).
No constants are given. Whether binding was seen depends on the method and setting. In cells and extracts the contact can be indirect. Some binding calls cover weakened binding; strength is not graded here.

Sequences of proteins named here, by UniProt entry; tags and fusion partners are left off. A change or cut given only in a name is not applied to a line headed by its entry.
UniProt Q8IVH8: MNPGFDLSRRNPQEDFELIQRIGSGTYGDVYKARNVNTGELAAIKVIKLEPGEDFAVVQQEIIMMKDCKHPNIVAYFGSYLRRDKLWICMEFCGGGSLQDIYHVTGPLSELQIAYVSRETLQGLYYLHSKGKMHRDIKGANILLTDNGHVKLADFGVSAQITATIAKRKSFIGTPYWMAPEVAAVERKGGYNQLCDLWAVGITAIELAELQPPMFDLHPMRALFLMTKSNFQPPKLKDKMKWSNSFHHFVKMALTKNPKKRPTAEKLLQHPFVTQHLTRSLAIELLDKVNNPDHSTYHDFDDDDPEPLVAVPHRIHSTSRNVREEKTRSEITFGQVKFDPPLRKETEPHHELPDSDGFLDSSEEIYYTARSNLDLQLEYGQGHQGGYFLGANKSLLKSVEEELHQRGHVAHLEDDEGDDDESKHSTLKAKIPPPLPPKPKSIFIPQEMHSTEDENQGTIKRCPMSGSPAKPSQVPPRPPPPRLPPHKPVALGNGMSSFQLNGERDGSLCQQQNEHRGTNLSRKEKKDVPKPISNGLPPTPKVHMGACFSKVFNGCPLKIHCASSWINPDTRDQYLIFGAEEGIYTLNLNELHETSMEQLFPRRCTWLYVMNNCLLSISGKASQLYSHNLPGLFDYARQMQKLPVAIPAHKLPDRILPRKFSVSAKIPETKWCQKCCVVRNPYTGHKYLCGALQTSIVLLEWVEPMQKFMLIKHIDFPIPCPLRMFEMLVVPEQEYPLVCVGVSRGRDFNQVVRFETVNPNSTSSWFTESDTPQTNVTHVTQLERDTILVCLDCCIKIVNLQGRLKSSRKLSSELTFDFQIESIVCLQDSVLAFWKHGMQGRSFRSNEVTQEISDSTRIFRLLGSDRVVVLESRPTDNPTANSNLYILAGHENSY
UniProt Q96EB6: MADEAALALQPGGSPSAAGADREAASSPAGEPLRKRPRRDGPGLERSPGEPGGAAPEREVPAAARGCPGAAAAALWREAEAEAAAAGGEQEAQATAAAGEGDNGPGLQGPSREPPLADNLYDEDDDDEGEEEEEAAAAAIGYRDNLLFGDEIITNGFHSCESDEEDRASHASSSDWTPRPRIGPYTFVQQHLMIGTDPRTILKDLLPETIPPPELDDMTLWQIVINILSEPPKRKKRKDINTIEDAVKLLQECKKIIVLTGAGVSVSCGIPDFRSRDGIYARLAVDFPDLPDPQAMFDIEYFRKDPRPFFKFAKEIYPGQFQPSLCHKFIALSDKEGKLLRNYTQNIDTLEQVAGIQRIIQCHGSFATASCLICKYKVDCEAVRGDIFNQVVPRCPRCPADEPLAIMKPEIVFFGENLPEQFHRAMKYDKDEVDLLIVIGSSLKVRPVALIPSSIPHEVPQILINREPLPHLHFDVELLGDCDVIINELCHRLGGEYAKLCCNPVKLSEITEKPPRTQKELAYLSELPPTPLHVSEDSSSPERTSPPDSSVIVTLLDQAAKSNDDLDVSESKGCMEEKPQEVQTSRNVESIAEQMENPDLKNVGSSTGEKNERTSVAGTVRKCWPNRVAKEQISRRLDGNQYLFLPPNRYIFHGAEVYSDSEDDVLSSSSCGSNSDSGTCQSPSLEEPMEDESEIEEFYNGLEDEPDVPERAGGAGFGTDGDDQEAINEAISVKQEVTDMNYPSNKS

Target: WT-MAP4K3-FLAG (UniProt Q8IVH8)
Experiment: co-IP; anti-FLAG IP from lysates of co-transfected HEK293A cells (WT or MAP4K3 k.o.), blot with anti-HA and anti-FLAG; lysis buffer 25 mM HEPES-KOH pH 7.4, 150 mM NaCl, 5 mM EDTA, 1% Triton X-100; 2 h at 4°C

binding | Substance
no binding | SIRT1:1–114 (HA-tagged) (from UniProt Q96EB6 1-114) (domain or fragment)
binds | SIRT1:1–465 (HA-tagged) (from UniProt Q96EB6 1-465) (domain or fragment)
binds | SIRT1:1–698 (HA-tagged) (from UniProt Q96EB6 1-698) (domain or fragment)
binds | SIRT1:142–747 (HA-tagged) (from UniProt Q96EB6 142-747) (domain or fragment)
no binding | SIRT1:465–747 (HA-tagged) (from UniProt Q96EB6 465-747) (domain or fragment)
